Reference: the supplement of paper PMC8047034
Structures can show the parent of a compound that is named as a salt. Some of the results follow. Most values come without repeats; read them as rough.

What was measured:
OVCAR4 = test: log2 surviving fraction (library drug vs vehicle, or drug + carboplatin vs carboplatin alone; relative to plate median); ovarian cancer lines: OVCAR4 is platinum-sensitive and Ov4Carbo platinum-resistant; higher = more cell survival; conditions: library drug concentration 10 µM, 7 days
Ov4Carbo = test: as above; conditions: library drug concentration 10 µM, 7 days

| Compound | log2 surviving fraction (OVCAR4; carboplatin co-treatment 0 µM) | log2 surviving fraction (OVCAR4; carboplatin co-treatment 5 µM) | log2 surviving fraction (Ov4Carbo; carboplatin co-treatment 0 µM) | log2 surviving fraction (Ov4Carbo; carboplatin co-treatment 5 µM) |
| --- | --- | --- | --- | --- |
| NS(=O)(=O)c1cc(C(=O)O)c(NCc2ccco2)cc1Cl [Furosemide (Lasix)] | 1.24 | 0.341 | 0.945 | 0.494 |
| O=C1c2cccc3c2[C@H](CCC3)CN1[C@@H]1CN2CCC1CC2 [Palonosetron HCl] | -1.74 | -0.705 | -1.52 | -1.36 |
| CC[C@@]1(O)C(=O)OCc2c1cc1n(c2=O)Cc2cc3ccccc3nc2-1 [Camptothecin] | -8.64 | -7.29 | -7.74 | -6.98 |
| CC1COc2c(N3CCN(C)CC3)c(F)cc3c(=O)c(C(=O)O)cn1c23 (stereo unspecified) [Ofloxacin (Floxin)] | 0.715 | 0.524 | 0.404 | 0.413 |
| Cn1c(=O)c2[nH]cnc2n(C)c1=O [Aminophylline (Truphylline)] | -9.2 | 0.345 | 0.745 | 0.372 |
| CCOC(=O)C1=C[C@@H](OC(CC)CC)[C@H](NC(C)=O)[C@@H](N)C1 [Oseltamivir phosphate (Tamiflu)] | 0.0102 | 0.368 | 0.352 | 0.121 |
| C/C(=C(\CCOP(=O)(O)O)SC(=O)c1ccccc1)N(C=O)Cc1cnc(C)nc1N [Benfotiamine] | 1.35 | 0.733 | 0.65 | 0.456 |
| CC(C)(CO)[C@@H](O)C(=O)NCCC(=O)O [Pantothenic acid (pantothenate)] | 0.208 | 0.619 | 0.429 | 0.371 |
| CO[C@@H]1[C@@H](OC(N)=O)[C@@H](O)[C@H](Oc2ccc3c(O)c(NC(=O)c4ccc(O)c(CC=C(C)C)c4)c(=O)oc3c2C)OC1(C)C [Novobiocin sodium (Albamycin)] | 0.239 | 0.197 | 0.556 | -0.326 |
